Biological target: the molecule itself
Test: cross-linking

B1: CLEC-2 (C-type lectin receptor) on human platelets (receptor)
chain: not shown
modifications: differentially glycosylated (30 and 40kDa forms)
With B1 the “stoichiometry N” value was 2.

From PMC4361903 (Blood, 2010)
